Test results published in the RNAGym collection of RNA variant scans (doi:10.7554/elife.90254).
The source gives no read counts; variants with many changes may rest on few reads.

B1: OR4K15 (parent)
chain: GUUAACGGUCAUAGGCCAUGGAAACUAGGAGCACCAUUUCGCUGCCAGUGAAGAAAUGAACAAAGAAAAUCUGGGCCAGGCAGGCAUCAAAAGAAAUAGUCUUGCGCUCAACCAGAAAGUCUGUAAUCAUUUUAAGGGUA

Variants of: B1
Experiment: self-cleavage, relative activity (ratio to wild type); higher = more cleavage; in vitro, sequencing; the parent is a self-cleaving ribozyme

Question: Which self-cleavage does the source give for A51G U87C A116U here?
Answer: 0.16

Question: With U43A A60G A69G as the variant, how does the self-cleavage read?
Answer: 1.16

Question: With U37C A66U U100C as the variant, how does the self-cleavage read?
Answer: 1.87

Question: For A89G C113U U122C A129G, which self-cleavage is on record?
Answer: 0.01

Question: For A5G A33C A47G U103C, which self-cleavage is on record?
Answer: 0.61

Question: For A11G A33G A94G, which self-cleavage is on record?
Answer: 0.75

Question: With U19C A23U U72C G104A A129U as the variant, how does the self-cleavage read?
Answer: 0.02

Question: With A22G U43C A96G A114G as the variant, how does the self-cleavage read?
Answer: 0.5

Question: Which self-cleavage does the source give for U9A A30G U37A U103A A111U U127A U132C here?
Answer: 0.07

Question: For A24G U43C A55G A95G U130C, which self-cleavage is on record?
Answer: 1.75

Question: Which self-cleavage does the source give for A54G A78C U102C A135G here?
Answer: 0.48

Question: For A18G A23G U87C, which self-cleavage is on record?
Answer: 1.02

Question: For A24G C32A U39A A52U, which self-cleavage is on record?
Answer: 1.1

Question: For U19A A47U U132C, which self-cleavage is on record?
Answer: 0.25

Question: With A30G U70C U72A as the variant, how does the self-cleavage read?
Answer: 0.18

Question: Which self-cleavage does the source give for A54G A94G U122A here?
Answer: 1.68

Question: Which self-cleavage does the source give for U39C C61U U130C U132C A135U here?
Answer: 0.15

Question: With U2C U12A U39G as the variant, how does the self-cleavage read?
Answer: 0.87

Question: For U2C C61A A63U A117G, which self-cleavage is on record?
Answer: 0.62

Question: With A95G A96G A125G as the variant, how does the self-cleavage read?
Answer: 0

Question: Which self-cleavage does the source give for A30U U39A A78G A111G here?
Answer: 0.02

Question: With A30G A60G A91G A125G as the variant, how does the self-cleavage read?
Answer: 0.18

Question: Which self-cleavage does the source give for A23U G28A A78U A117G A126G here?
Answer: 0.55

Question: For U26C A27C G123A, which self-cleavage is on record?
Answer: 1.54

Question: With A55G U124C U131C as the variant, how does the self-cleavage read?
Answer: 0.04

Question: Which self-cleavage does the source give for A22G A89U A118C here?
Answer: 0.46

Question: Which self-cleavage does the source give for A51G A82U U108C here?
Answer: 0.03

Question: Which self-cleavage does the source give for A54G A60G A66G U70C A90G U102A here?
Answer: 0.25

Question: With U9C A30G A59G as the variant, how does the self-cleavage read?
Answer: 0.99

Question: Which self-cleavage does the source give for U70A U122A A134U here?
Answer: 1.16

Question: For A62U A69G U108A, which self-cleavage is on record?
Answer: 0.04

Question: With U39A A78U G104A as the variant, how does the self-cleavage read?
Answer: 0

Question: For G50A A52G A90G U130A, which self-cleavage is on record?
Answer: 0.61

Question: Which self-cleavage does the source give for U2A U38C C85U A111G here?
Answer: 0.23

Question: For U9C U12C U43A A68G U87C A117G, which self-cleavage is on record?
Answer: 1.58

Question: Which self-cleavage does the source give for A33U A54U A68C C77U U108C A111G here?
Answer: 0

Question: With A27U G29C G83A G106A U132C as the variant, how does the self-cleavage read?
Answer: 0.01

Question: For A18U U43A U72C A95G A117G G123A A129U, which self-cleavage is on record?
Answer: 0.04

Question: Which self-cleavage does the source give for A18G A62G A96G C105U here?
Answer: 0.09

Question: For A22U A52G U57A A82G U120G A126G, which self-cleavage is on record?
Answer: 0.07

Question: Which self-cleavage does the source give for U2A C34U U72C here?
Answer: 0.79

Question: With A5G U9C U49C U100C as the variant, how does the self-cleavage read?
Answer: 1.34

Question: Which self-cleavage does the source give for A5G A56G A94G here?
Answer: 1.29

Question: For A18U U57C A90G U132C, which self-cleavage is on record?
Answer: 0.31

Question: With U3A U43C A63G as the variant, how does the self-cleavage read?
Answer: 0.89

Question: For A23G A60G A82G U108C U130C, which self-cleavage is on record?
Answer: 0.01

Question: For A23G A78U U97C A117G, which self-cleavage is on record?
Answer: 0.27

Question: With U3C A95G A134G as the variant, how does the self-cleavage read?
Answer: 1.75

Question: Which self-cleavage does the source give for U39C U72A U100C here?
Answer: 0.29

Question: For A51G A66G C113A U122C, which self-cleavage is on record?
Answer: 0.05

Question: For U2C U9C A11G U26C, which self-cleavage is on record?
Answer: 1.61

Question: Which self-cleavage does the source give for U38A A52G A118G here?
Answer: 1.2

Question: For U38C U70A A90G A96G C121U, which self-cleavage is on record?
Answer: 2.19

Question: For A59U A68U U102C G115U U139C, which self-cleavage is on record?
Answer: 0.07

Question: With A52C A89G U103C A111G U127G as the variant, how does the self-cleavage read?
Answer: 0.01

Question: Which self-cleavage does the source give for A18G A22G A89U A94G here?
Answer: 0.41

Question: Which self-cleavage does the source give for U43C A55G A117G here?
Answer: 1.13

Question: With A18U U108A U120C U127C as the variant, how does the self-cleavage read?
Answer: 0.01

Question: With A78G A94G A117G as the variant, how does the self-cleavage read?
Answer: 0.55

Question: For A82G A98U C105U U122C, which self-cleavage is on record?
Answer: 0.08

Question: Which self-cleavage does the source give for A5G A67G U122C here?
Answer: 1.3

Question: For A23C A96U U130C, which self-cleavage is on record?
Answer: 1.01

Question: Which self-cleavage does the source give for A56G A64G A78U here?
Answer: 0.12

Question: For A47U A67G A68G A91G A116G, which self-cleavage is on record?
Answer: 0.4

Question: For U38C A96G A111G U122C, which self-cleavage is on record?
Answer: 0.01

Question: With A55G A56G A82G A96G U120C as the variant, how does the self-cleavage read?
Answer: 0.17

Question: For A47U U97A U132C, which self-cleavage is on record?
Answer: 1.25

Question: Which self-cleavage does the source give for A23U A60G A67G A86G A110G here?
Answer: 0.12

Question: With U43C A52G A116G as the variant, how does the self-cleavage read?
Answer: 0.82

Question: With A60G A89C U100C as the variant, how does the self-cleavage read?
Answer: 2.69

Question: With U12A G31A U38C A96G as the variant, how does the self-cleavage read?
Answer: 1.54

Question: For A33G A96G U130C, which self-cleavage is on record?
Answer: 0.5

Question: Which self-cleavage does the source give for A11G U19C A23U A47C A89U A92G here?
Answer: 1

Question: With A24G A54G U57A as the variant, how does the self-cleavage read?
Answer: 1.21

Question: Which self-cleavage does the source give for U37C A91G U127C here?
Answer: 1.13

Question: With U2A U9C A89G as the variant, how does the self-cleavage read?
Answer: 1.6

Question: For A22U C46G A69U A126G A134U, which self-cleavage is on record?
Answer: 0

Question: For U39A G53U A56G A82G A96G A110G, which self-cleavage is on record?
Answer: 0.02

Question: For A13G U26C A114U, which self-cleavage is on record?
Answer: 0.19

Question: Which self-cleavage does the source give for U39C U87C A117G here?
Answer: 2.14

Question: Which self-cleavage does the source give for A64G G65A A135G here?
Answer: 0.95

Question: With A24G A69U A96G U120C as the variant, how does the self-cleavage read?
Answer: 1.96

Question: For A5G U37C A67G, which self-cleavage is on record?
Answer: 1.24
